The results in this text go back to article PMC9911399, “Two distinct binding modes provide the RNA-binding protein RbFox with extraordinary sequence specificity”.

First the molecules themselves.
B1: AUCAAUU (DNA:RNA)
RNA: GGGAGACCGGAAUUCAGAUUGUCCAUCAAUUUUAAAUCCCGUCGUAGCCACCA
DNA 1: CAATCTGAATTCCGGTCTCCC
DNA 2: TGGTGGCTACGACGGGATT
B2: AACAGAA (DNA:RNA)
RNA: B1 RNA with U26A, A29G, U30A, U31A
DNA 1: CAATCTGAATTCCGGTCTCCC
DNA 2: TGGTGGCTACGACGGGATT
B3: UUUCAGU (DNA:RNA)
RNA: B1 RNA with A25U, C27U, A28C, U30G
DNA 1: CAATCTGAATTCCGGTCTCCC
DNA 2: TGGTGGCTACGACGGGATT
B4: CCAUAUC (DNA:RNA)
RNA: B1 RNA with A25C, U26C, C27A, A28U, U31C
DNA 1: CAATCTGAATTCCGGTCTCCC
DNA 2: TGGTGGCTACGACGGGATT
B5: UAUUAGG (DNA:RNA)
RNA: B1 RNA with A25U, U26A, C27U, A28U, U30G, U31G
DNA 1: CAATCTGAATTCCGGTCTCCC
DNA 2: TGGTGGCTACGACGGGATT
B6: AACUCCU (DNA:RNA)
RNA: B1 RNA with U26A, A28U, A29C, U30C
DNA 1: CAATCTGAATTCCGGTCTCCC
DNA 2: TGGTGGCTACGACGGGATT
B7: UGUUAAC (DNA:RNA)
RNA: B1 RNA with A25U, U26G, C27U, A28U, U30A, U31C
DNA 1: CAATCTGAATTCCGGTCTCCC
DNA 2: TGGTGGCTACGACGGGATT
B8: AAAGAAC (DNA:RNA)
RNA: B1 RNA with U26A, C27A, A28G, U30A, U31C
DNA 1: CAATCTGAATTCCGGTCTCCC
DNA 2: TGGTGGCTACGACGGGATT
B9: GCGUACU (DNA:RNA)
RNA: B1 RNA with A25G, U26C, C27G, A28U, U30C
DNA 1: CAATCTGAATTCCGGTCTCCC
DNA 2: TGGTGGCTACGACGGGATT
B10: UGUGCAU (DNA:RNA)
RNA: B1 RNA with A25U, U26G, C27U, A28G, A29C, U30A
DNA 1: CAATCTGAATTCCGGTCTCCC
DNA 2: TGGTGGCTACGACGGGATT
B11: UGGGGGA (DNA:RNA)
RNA: GGGAGACCGGAAUUCAGAUUGUCCUGGGGGAUUAAAUCCCGUCGUAGCCACCA
DNA 1: CAATCTGAATTCCGGTCTCCC
DNA 2: TGGTGGCTACGACGGGATT
B12: UUCAACC (DNA:RNA)
RNA: B1 RNA with A25U, U30C, U31C
DNA 1: CAATCTGAATTCCGGTCTCCC
DNA 2: TGGTGGCTACGACGGGATT
B13: GGGUGUG (DNA:RNA)
RNA: B11 RNA with U25G, G28U, G30U, A31G
DNA 1: CAATCTGAATTCCGGTCTCCC
DNA 2: TGGTGGCTACGACGGGATT
B14: UUCAAAC (DNA:RNA)
RNA: B1 RNA with A25U, U30A, U31C
DNA 1: CAATCTGAATTCCGGTCTCCC
DNA 2: TGGTGGCTACGACGGGATT
B15: ACGGAGG (DNA:RNA)
RNA: B11 RNA with U25A, G26C, G29A, A31G
DNA 1: CAATCTGAATTCCGGTCTCCC
DNA 2: TGGTGGCTACGACGGGATT
B16: GCAACCU (DNA:RNA)
RNA: B1 RNA with A25G, U26C, C27A, A29C, U30C
DNA 1: CAATCTGAATTCCGGTCTCCC
DNA 2: TGGTGGCTACGACGGGATT
B17: UGAUGUU (DNA:RNA)
RNA: B11 RNA with G27A, G28U, G30U, A31U
DNA 1: CAATCTGAATTCCGGTCTCCC
DNA 2: TGGTGGCTACGACGGGATT
B18: GAAAGAG (DNA:RNA)
RNA: B1 RNA with A25G, U26A, C27A, A29G, U30A, U31G
DNA 1: CAATCTGAATTCCGGTCTCCC
DNA 2: TGGTGGCTACGACGGGATT
B19: GAAUGCG (DNA:RNA)
RNA: B11 RNA with U25G, G26A, G27A, G28U, G30C, A31G
DNA 1: CAATCTGAATTCCGGTCTCCC
DNA 2: TGGTGGCTACGACGGGATT
B20: UAAGUAG (DNA:RNA)
RNA: B11 RNA with G26A, G27A, G29U, G30A, A31G
DNA 1: CAATCTGAATTCCGGTCTCCC
DNA 2: TGGTGGCTACGACGGGATT

Numbering of substitutions follows the chain as printed; changes in the protein carry UniProt numbers. The list shows a part of the results.

For the assay, the target named is T1, RBFOX1 RRM (Homo sapiens, UniProt Q9NWB1 109-208).
T1 sequence: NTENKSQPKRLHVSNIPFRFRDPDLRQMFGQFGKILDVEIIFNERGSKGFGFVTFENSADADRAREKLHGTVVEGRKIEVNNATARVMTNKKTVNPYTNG
Kind of assay: EMSA; HiTS-Eq, 1 nM pool, 10 min; buffer printed only for the single-RNA assays: 10 mM Tris pH 7.5, 150 mM NaCl, 3.4 mM EDTA, 0.001% NP-40, 30 C. To be noted: tags: His6 N-terminal (pET28a); label: 5' 32P. The procedure, abridged:
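These values rest on relative association constants, computed from read-count changes of each RNA species versus the control reaction and normalised to the cognate motif. Reads came from free RNA recovered by 8% native PAGE after purified RbFox RRM (wild type or mutant) at increasing concentrations was equilibrated for 10 min in 50 µL with 1 nM of a 5′-radiolabelled pool with 7 randomized nucleotides and DNA-annealed flanks.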
As for B1, the binding signal was 0.00219 KA relative to UGCAUGU.
Then B2, with 0.00258 KA relative to UGCAUGU; and B3, with 0.0155 KA relative to UGCAUGU; and B4, with 0.002 KA relative to UGCAUGU.
With B5 the figure was 0.00719 KA relative to UGCAUGU; with B6, 0.0003 KA relative to UGCAUGU; with B7, 0.0104 KA relative to UGCAUGU.
With B8 the figure was 0.00624 KA relative to UGCAUGU.
As for B9, the binding signal was 0.00794 KA relative to UGCAUGU.
B10: the binding signal is 0.0291 KA relative to UGCAUGU.
Consider B11, for which the binding signal was 0.0155 KA relative to UGCAUGU.
Then B12, with 0.00041 KA relative to UGCAUGU.
With B13, the binding signal was 0.0275 KA relative to UGCAUGU.
B14: the binding signal was 0.00257 KA relative to UGCAUGU.
On to B15, for which the binding signal was 0.0139 KA relative to UGCAUGU.
Consider B16, for which the binding signal is 0.00725 KA relative to UGCAUGU.
Consider B17, for which the binding signal is 0.0252 KA relative to UGCAUGU.
Regarding B18, the binding signal was 0.0129 KA relative to UGCAUGU.
Take B19: the binding signal is 0.0283 KA relative to UGCAUGU.
For the molecule B20, the binding signal is 0.0136 KA relative to UGCAUGU.
